# This is one part of the list.
# B1: FimA-N3 (Actinomyces oris) (protein)
# chain: MHHHHHHSSGVDLGTENLYFQSNAGLQGAQFQLYKAKNAYANTCSNEKEGAPIAINGQTTLTTDAQGAIDIKGLFISDSIDGADRDNQVNAMERCYVLVETKAPAGYVLPAGNGAATPVKVKAGEETTDN
# Experiments:
# Test in all cases: glycan array binding signal (z-score within array); higher = stronger binding
# Conditions in all cases: glycan notation: IUPAC condensed, linker removed
# [1] = biological target: GlcNAc(b1-3)Gal(b1-4)GlcNAc(b1-3)Gal(b1-4)GlcNAc(b1-2)Man(a1-3)[GlcNAc(b1-3)Gal(b1-4)GlcNAc(b1-3)Gal(b1-4)GlcNAc(b1-2)Man(a1-6)]Man(b1-4)GlcNAc(b1-4)[Fuc(a1-6)]GlcNAc
# Method in brief: (§1)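 Glycan array data were curated from 3228 arrays in the Consortium for Functional Glycomics database and kept only where the protein sequence was available. Glycan names were converted to IUPAC-condensed notation, and columns mapping to the same glycan were averaged. The binding signal is a within-array Z-score, averaged across arrays of the same protein sequence at different concentrations or buffers and across linkers. Negative Z-scores can be read as non-binding.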
# [2] = biological target: GlcNAc(b1-3)Gal(b1-4)GlcNAc(b1-3)Gal(b1-4)GlcNAc(b1-2)[GlcNAc(b1-3)Gal(b1-4)GlcNAc(b1-3)Gal(b1-4)GlcNAc(b1-6)]Man(a1-6)[GlcNAc(b1-3)Gal(b1-4)GlcNAc(b1-3)Gal(b1-4)GlcNAc(b1-2)Man(a1-3)]Man(b1-4)GlcNAc(b1-4)[Fuc(a1-6)]GlcNAc
# Method in brief: as §1
# [3] = biological target: GlcNAc(b1-3)Gal(b1-4)GlcNAc(b1-3)Gal(b1-4)GlcNAc(b1-3)Gal(b1-4)GlcNAc(b1-2)Man(a1-3)[GlcNAc(b1-3)Gal(b1-4)GlcNAc(b1-3)Gal(b1-4)GlcNAc(b1-3)Gal(b1-4)GlcNAc(b1-2)Man(a1-6)]Man(b1-4)GlcNAc(b1-4)GlcNAc
# Method in brief: as §1
# [4] = biological target: GlcNAc(b1-3)Gal(b1-4)GlcNAc(b1-3)Gal(b1-4)GlcNAc(b1-3)Gal(b1-4)GlcNAc(b1-2)Man(a1-3)[GlcNAc(b1-3)Gal(b1-4)GlcNAc(b1-3)Gal(b1-4)GlcNAc(b1-3)Gal(b1-4)GlcNAc(b1-2)Man(a1-6)]Man(b1-4)GlcNAc(b1-4)[Fuc(a1-6)]GlcNAc
# Method in brief: as §1
# [5] = biological target: GlcNAc(b1-3)Gal(b1-4)GlcNAc(b1-3)Gal(b1-4)GlcNAc(b1-3)Gal(b1-4)GlcNAc(b1-2)[GlcNAc(b1-3)Gal(b1-4)GlcNAc(b1-3)Gal(b1-4)GlcNAc(b1-3)Gal(b1-4)GlcNAc(b1-6)]Man(a1-6)[GlcNAc(b1-3)Gal(b1-4)GlcNAc(b1-3)Gal(b1-4)GlcNAc(b1-3)Gal(b1-4)GlcNAc(b1-2)Man(a1-3)]Man(b1-4)GlcNAc(b1-4)[Fuc(a1-6)]GlcNAc
# Method in brief: as §1
# [6] = biological target: GlcNAc(b1-3)Gal(b1-4)GlcNAc(b1-3)Gal(b1-4)GlcNAc(b1-3)Gal(b1-4)GlcNAc(b1-3)Gal(b1-4)GlcNAc(b1-2)Man(a1-3)[GlcNAc(b1-3)Gal(b1-4)GlcNAc(b1-3)Gal(b1-4)GlcNAc(b1-3)Gal(b1-4)GlcNAc(b1-3)Gal(b1-4)GlcNAc(b1-2)Man(a1-6)]Man(b1-4)GlcNAc(b1-4)GlcNAc
# Method in brief: as §1
# [7] = biological target: GlcNAc(b1-3)Gal(b1-4)GlcNAc(b1-3)Gal(b1-4)GlcNAc(b1-3)Gal(b1-4)GlcNAc(b1-3)Gal(b1-4)GlcNAc(b1-2)Man(a1-3)[GlcNAc(b1-3)Gal(b1-4)GlcNAc(b1-3)Gal(b1-4)GlcNAc(b1-3)Gal(b1-4)GlcNAc(b1-3)Gal(b1-4)GlcNAc(b1-2)Man(a1-6)]Man(b1-4)GlcNAc(b1-4)[Fuc(a1-6)]GlcNAc
# Method in brief: as §1
# [8] = biological target: GlcNAc(b1-3)Gal(b1-4)GlcNAc(b1-3)Gal(b1-4)GlcNAc(b1-3)Gal(b1-4)GlcNAc(b1-3)Gal(b1-4)GlcNAc(b1-2)[GlcNAc(b1-3)Gal(b1-4)GlcNAc(b1-3)Gal(b1-4)GlcNAc(b1-3)Gal(b1-4)GlcNAc(b1-3)Gal(b1-4)GlcNAc(b1-6)]Man(a1-6)[GlcNAc(b1-3)Gal(b1-4)GlcNAc(b1-3)Gal(b1-4)GlcNAc(b1-3)Gal(b1-4)GlcNAc(b1-3)Gal(b1-4)GlcNAc(b1-2)Man(a1-3)]Man(b1-4)GlcNAc(b1-4)[Fuc(a1-6)]GlcNAc
# Method in brief: as §1
# [9] = biological target: GlcNAc(b1-3)Gal(b1-4)GlcNAc(b1-3)Gal(b1-4)GlcNAc(b1-3)GalNAc
# Method in brief: as §1
# [10] = biological target: GlcNAc(b1-3)Gal(b1-4)GlcNAc(b1-3)GalNAc
# Method in brief: as §1
# [11] = biological target: GlcNAc(b1-3)Gal(b1-4)GlcNAc(b1-3)[GlcNAc(b1-3)Gal(b1-4)GlcNAc(b1-3)]GalNAc
# Method in brief: as §1
# [12] = biological target: GlcNAc(b1-3)Gal(b1-4)GlcNAc(b1-6)[Gal(b1-3)]GalNAc
# Method in brief: as §1
# [13] = biological target: GlcNAc(b1-3)Gal(b1-4)GlcNAc(b1-6)[GlcNAc(b1-3)Gal(b1-3)]GalNAc
# Method in brief: as §1
# [14] = biological target: GlcNAc(b1-3)Gal(b1-4)GlcNAc(b1-6)[GlcNAc(b1-3)]Gal(b1-4)GlcNAc
# Method in brief: as §1
# GlcNAc(b1-3)GalNAc = biological target: GlcNAc(b1-3)GalNAc
# Method in brief: as §1
# GlcNAc(b1-3)Man = biological target: GlcNAc(b1-3)Man
# Method in brief: as §1
# [15] = biological target: GlcNAc(b1-3)[GlcNAc(b1-4)][GlcNAc(b1-6)]GlcNAc
# Method in brief: as §1
# [16] = biological target: GlcNAc(b1-3)[GlcNAc(b1-6)]Gal(b1-4)GlcNAc
# Method in brief: as §1
# [17] = biological target: GlcNAc(b1-3)[GlcNAc(b1-6)]GalNAc
# Method in brief: as §1
# [18] = biological target: GlcNAc(b1-4)Gal(b1-4)GlcNAc
# Method in brief: as §1
# GlcNAc(b1-4)GlcNAc = biological target: GlcNAc(b1-4)GlcNAc
# Method in brief: as §1
# [19] = biological target: GlcNAc(b1-4)GlcNAc(b1-4)GlcNAc
# Method in brief: as §1
# [20] = biological target: GlcNAc(b1-4)GlcNAc(b1-4)GlcNAc(b1-4)GlcNAc(b1-4)GlcNAc
# Method in brief: as §1
binder,measurement,setting,value
B1,glycan array binding signal (z-score),[1],0.721
same,glycan array binding signal (z-score),[2],0.202
same,glycan array binding signal (z-score),[3],-0.568
same,glycan array binding signal (z-score),[4],-0.073
same,glycan array binding signal (z-score),[5],0.165
same,glycan array binding signal (z-score),[6],-0.047
same,glycan array binding signal (z-score),[7],-0.204
same,glycan array binding signal (z-score),[8],-0.433
same,glycan array binding signal (z-score),[9],0.003
same,glycan array binding signal (z-score),[10],0.471
same,glycan array binding signal (z-score),[11],-0.624
same,glycan array binding signal (z-score),[12],-0.482
same,glycan array binding signal (z-score),[13],-0.122
same,glycan array binding signal (z-score),[14],-0.297
same,glycan array binding signal (z-score),GlcNAc(b1-3)GalNAc,-0.027
same,glycan array binding signal (z-score),GlcNAc(b1-3)Man,-0.375
same,glycan array binding signal (z-score),[15],0.112
same,glycan array binding signal (z-score),[16],-0.08
same,glycan array binding signal (z-score),[17],0.396
same,glycan array binding signal (z-score),[18],-0.488
same,glycan array binding signal (z-score),GlcNAc(b1-4)GlcNAc,-0.048
same,glycan array binding signal (z-score),[19],-0.549
same,glycan array binding signal (z-score),[20],0.098

# From the supplement of paper PMC8728848
